# Measurements: ChEMBL document CHEMBL4888484, “Replenishing the malaria drug discovery pipeline: Screening and hit evaluation of the MMV Hit Generation Library 1 (HGL1) against asexual blood stage Plasmodium falciparum ,using a nano luciferase reporter read-out” (2022)
# The campaign covered roughly 150,000 compounds. About 540 (0.36%) showed an effect of 50% or more. The list shows a part of the results.
# System: Plasmodium falciparum
# Test: Primary screen in NF54 nanoGlo assay, in single point, at 2uM, 72h; a lower Z score goes with more inhibition
# Format: functional, Erythrocyte
# Settings: timepoint 72 hour
SMILES,% Inhibition [%],Z score
O=S1(=O)N[C@@H]2CN(CC3CC3)C[C@@H]2Oc2ccccc21,-8,1.37
CC(=O)N(c1nc(CN(C2CC2)[C@@H](C)c2ccc(Cl)cc2)cs1)C1CC1,-14,1.95
O=C(Nc1cnccc1-n1cccn1)c1csc(C2CC2)n1,-22,3.5
CC[C@H]1CCCN(C(=O)NCc2ccc(=O)[nH]n2)CC1,-6,1.23
C[C@@H](CCOc1ccccc1)C(=O)NCC#N,7,-1.01
CN(CCNS(C)(=O)=O)c1cncc(Br)c1,13,-1.81
COc1cc2c(cc1OC)[C@H](c1ccccc1)N(Cc1cn3ccccc3n1)CC2,-9,1.7
c1ccc(CN2CCN(CCO[C@@H]3CCCCO3)CC2)cc1,-21,3.88
COC1([C@H](C)NC(=O)c2cccn2C)CCOCC1,-12,1.66
COc1ccc(C(=O)N[C@H]2CCCc3c2cnn3-c2cccc(C)c2C)o1,-5,0.85
O=C(CCN1Cc2ccccc2C1)N[C@H]1CCOC[C@@H]1Oc1ccccn1,-17,2.23
C[C@@H](CC(=O)N1CCN(c2ccc(F)cc2)CC1)c1ccncc1,-6,0.83
CCc1ocnc1C(=O)Nc1c(-c2cnn(C)c2)nc2n1CCCC2,6,-0.8
Cc1cc(NC(=O)[C@H](C)OC(=O)c2ccc3nccn3c2)on1,9,-1.2
CCC#CCN1CCC2(CCC(=O)NC2)CC1,1,-0.1
Cc1cccc(OCC(=O)N2C[C@@H](CN3CCCCC3)[C@@H](CO)C2)c1,-3,0.51
CCn1ncc(S(=O)(=O)N2C[C@@H]3CC[C@H]2CN(C)C3)c1C,0,0.02
Cc1cc(F)c(Br)cc1NS(=O)(=O)C1CC1,-13,1.52
CCN(CC)c1ccc(NCc2cccs2)cc1,-14,2.01
CC(C)CC(=O)N(Cc1cccc(F)c1)c1ccc(CC(=O)NCCc2ccccc2)cc1,-8,0.81
COc1ccc2c(c1F)CC[C@@H]2NCc1occc1C,-9,0.85

SMILES,% Inhibition [%],Z score
CC(=O)C(=O)N(CC1CCN(Cc2ccccc2F)CC1)C[C@H]1CCCO1,-12,1.72
CC(C)(C)OC(=O)N[C@@]1(C(=O)N2CCNC(=O)C2)CC1(F)F,-3,0.31
Cc1cc(=S)cc(C)n1CCCc1ccccc1,4,-0.46
CC[C@@H](C(=O)NCCOC)n1cc(-c2nc(-c3ccccc3F)no2)ccc1=O,-20,3.73
O=C(CC[C@@H]1N=C(O)N(Cc2ccccc2)C1=O)N1CCN(C/C=C/c2ccccc2)CC1,-12,1.3
CCc1nn(-c2ccc(F)cc2)c(N2CCN(C(C)C)CC2)c1CN(CC(C)C)C(=O)C1CCCC1,-3,0.39
CC(NC(=O)C1C(c2ccc(NC(=O)Cc3ccccc3)cc2)OC(=O)N1Cc1ccc(F)cc1)c1ccccc1 (stereo not drawn),26,-2.47
C[C@@H](C(=O)Nc1ccccc1N(C)Cc1ccccc1)S(C)(=O)=O,-2,0.31
CC1(C)CN(S(=O)(=O)c2cccc(C(=O)NC[C@H]3CCOC3)c2)CCO1,-21,2.27
O=C(c1ccc2ccccc2c1)N1CCC[C@H]1c1ccc2c(c1)OCCO2,-10,1.63
Cn1c(=O)c2c(-c3ccccc3)n3c(c2n(C)c1=O)[C@@H](c1ccc(O)cc1)Nc1ccccc1-3,5,-1.01
O=C(c1ccc(-n2nnc3cccnc32)cc1)N1CCN(c2ccccc2F)CC1,-4,0.71
Cc1cccc(N2CCN(C(=O)C3CCN(S(=O)(=O)Cc4ccccc4Cl)CC3)CC2)c1C,-2,0.31
COc1cc(CN2C[C@@H](C)CN(C)c3ccccc32)cc(OC)c1OC,-1,0.16
Nc1ncc(Cl)cc1S(=O)(=O)N1CCCC[C@H](N2CCCC2)C1,-2,0.22
NC(=O)C(=O)NCc1ccc(-c2ccoc2)o1,-5,0.71
CC(C)(C)C(=O)Nc1cnc2ccnn2c1,1,-0.19
CCC(=O)N(CCn1ccnc1)Cc1ccccc1Br,-4,0.52
Cc1n[nH]c2nc3ccccc3c(-c3ccccc3)c12,-17,2.78
CO[C@@H](C)c1nsc(NCc2ccc3c(c2)CNC3)n1,-7,0.94
O=C(NCCc1cccc2cccnc12)NCC[C@H]1CCCCO1,-10,1.14

SMILES,% Inhibition [%],Z score
CCCCN1C(=O)C2CCC3(CC2C1=O)OCCO3 (stereo not drawn),-11,1.45
CCN(CC)S(=O)(=O)Nc1cc(S(=O)(=O)N2CCOCC2)ccc1NC[C@H]1CCCO1,-3,0.44
CC[C@H](C)Oc1cc(CNCCC(=O)NC)ccc1OC,-4,0.3
O=C1O[C@H]2CN(Cc3ccc4c(c3)OCCO4)C[C@H]2N1Cc1ccccn1,-11,1
Cc1c(C(=O)NCc2cccnc2)cnn1-c1nccc(-c2ccccc2F)n1,-2,0.23
CC(C)c1noc(CNC(=O)N2CCC[C@H](C#N)C2)n1,-17,1.63
O=C(Nc1ccc(-n2ccnn2)cc1)Nc1ccsc1,31,-3.53
Cc1cc(F)ccc1NC(=O)CC[C@H]1CCCN(C(=O)c2ccc(=O)n(C)n2)C1,-6,0.74
O=c1ccc(C(F)(F)F)cn1Cc1ccc(-n2cccn2)cc1,1,-0.1
COc1cccc(-c2cc3n(n2)CCCN(C(=O)C2CCC2)C3)c1,6,-1.26
CC(=O)c1ccc(CNc2ncc(Cl)cn2)nc1C,-16,1.6
C[C@H](Nc1ccc(N2CCCC2=O)cc1)C(=O)N1CCCCCC1,0,-0.05
O=C(O)[C@@H]1CN(C(=O)CCc2nccs2)C[C@H]1c1ccc(Cl)cc1,-1,0.1
CC(=O)NCCNC(=O)c1cnc(COc2ccc(F)cc2)nc1O,-15,2.07
CCn1c(C)cc(C(=O)N(C)[C@H]2C[C@@H](OC)C2)c1C,-4,0.69
C[C@@H](c1ccccc1)n1cnnc1CCc1ccccc1O,-16,2.19
CN1CCC[C@H](CCC(=O)N2CCC3(CC2)C(=O)N(C)c2ccccc23)C1,-6,0.9
CN1CC2(C[C@H]1c1noc(-c3ccccn3)n1)CN(C(=O)C1(C)CCCCC1)C2,-22,2.52
Cn1ncnc1NS(=O)(=O)c1cccs1,-15,2.01
O=C(CN(CC1CCCC1)CC1CCCC1)Nc1cccc(F)c1,-8,1.47
C=C(C)COc1ccc(NC(=O)N(Cc2nnc(CC)o2)C(C)C)cc1,-7,1.33

SMILES,% Inhibition [%],Z score
O=C(Cc1ccccc1Cl)N1CCC(=C2CCC2)CC1,-15,2.34
CCc1ccc(CNC(=O)C2CCN(c3nnc(C)c4c(C)n(-c5ccc(C)cc5)nc34)CC2)cc1,20,-2.28
COc1cc(NC(=O)Cn2c(=O)n(-c3cccc(C)c3)c(=O)c3c2cc(C)n3C)cc(OC)c1,-7,0.6
Cc1c(Cl)ccc2c1NC(=O)C21NC(CC(N)=O)[C@H]2C(=O)N(C3CCCCC3)C(=O)[C@H]21 (stereo partly drawn),6,-0.7
O=C(CCCc1nccs1)Nc1ccn(CCc2ccncc2)n1,-2,0.21
CCCS(=O)(=O)N1CCC[C@H]1c1cc(C)on1,-18,2.37
CC(C)n1cncc1CN(C)[C@@H]1CCCC[C@@H]1O,11,-1.51
CN(C)[C@@H](CNc1oc(-c2ccccc2C(F)(F)F)nc1C#N)c1ccc(C(F)(F)F)cc1,-2,0.35
COC[C@H](C)NC(=O)Nc1ccnc(C)c1,-8,0.7
O=C(CCc1nc(C2CCCC2)no1)N1CCCC2(CCCCC2)CC1,5,-0.46
CN(C)c1nccnc1NC[C@H]1CC(=O)N(C2CC2)C1,-6,1.2
COCCc1noc([C@H](C)NC(=O)c2cc(CC(C)C)[nH]c(=O)n2)n1,-11,1.67
CO[C@@](C)(CNC(=O)c1ccnc(C2CC2)c1)C1CC1,-9,0.95
CC(=O)NC[C@H]1CN(c2ccnc(C(C)(C)C)n2)CCO1,-12,1.4
CCn1nnc(C)c1CN[C@H]1CCCc2c(F)cc(F)cc21,1,-0.24
CCc1nc(CN[C@@H](CC)c2ccc3c(c2)CCO3)cs1,-14,1.14
O=C(CNc1cc(S(=O)(=O)N2CCCCC2)ccc1Oc1ccc(Cl)cc1)N1CCNC1=O,6,-0.67
O=C(C[C@H]1COc2ccccc2N1)NCc1ccc2c(c1)OCO2,-14,2.51
NC(=O)NC(Cc1ccccc1)C(=O)NC1CCCN(c2ccccc2F)C1 (stereo not drawn),-1,0.16
COCCc1nncn1C1CN(Cc2cccc(Cl)c2)C1,-2,0.38
O=S(=O)(c1cn[nH]c1)N1CCN(CC(F)(F)F)CC1,-9,1.12
